First the molecules themselves.
B1: OR4K15 (parent)
chain: GUUAACGGUCAUAGGCCAUGGAAACUAGGAGCACCAUUUCGCUGCCAGUGAAGAAAUGAACAAAGAAAAUCUGGGCCAGGCAGGCAUCAAAAGAAAUAGUCUUGCGCUCAACCAGAAAGUCUGUAAUCAUUUUAAGGGUA

This passage reports self-cleavage results from the RNAGym collection of RNA variant scans (doi:10.7554/elife.90254).

Read counts are not given, so values of variants with three or more changes are uncertain.

In this data set the parent is B1. Description: self-cleavage, relative activity (ratio to wild type); higher = more cleavage; in vitro, sequencing; the parent is a self-cleaving ribozyme.
Take A23G C32U A62G A86U: the self-cleavage was 0.89. For A23G U49C G79A, the self-cleavage came to 0.21. A23U U43C A59G A86G A129G: the self-cleavage came to 0.5. Turning to A23G A82U A96U, the self-cleavage was determined as 0.19. With A23G A56G A86U U87C, the self-cleavage came to 0.37. As for A22U A54G U103C C105U A116G U127C, the self-cleavage worked out at 0. Regarding A24C A56G U87C, the self-cleavage was found to be 0.84.

Take A23G A56G U72A A116U U120C U131C G137U: the self-cleavage stood at 0.01. For the variant A24C A60G U103A U131C, the self-cleavage stood at 1.35.

For A23C A24G A51G A82G A111G, the self-cleavage worked out at 0.04. Under A23G A62G A118G A129G stands 0.65; under A23G A92G A134G, 1.54; under A23G A47C U72A A82G U108C, 0.03. Take A22U A23G A24G A69G: the self-cleavage came out at 1.18.

A23G A33C U103C: the self-cleavage is 0.89. Turning to A23G U100C U102A, the self-cleavage is 1.82. Turning to A23G A59G A92G, the self-cleavage turned out to be 1.36.

Consider A23G A55U U72C A78U U103C U108C, for which the self-cleavage was determined as 0.02.

As for A23G U37C A56G, the self-cleavage is 1.18. With A23G U43A A96G A129G, the self-cleavage is 1.25. On to A22U U100C A111G A117G, for which the self-cleavage came to 0.01.

In the case of A24C A66G U132C, the self-cleavage worked out at 1.44.

A23G G48A A63G G74A A114U: the self-cleavage is 0.05.

In the case of A23G A33G U72C A86U A94G U120A, the self-cleavage turned out to be 0.06. Under A23G C42U A78G stands 0.26; under A23G A89G U108C U120C, 0.02; under A22U A51U U57A A67G U87C A91G, 1.2. For the variant A22U A27G A89G A118G, the self-cleavage was 1.18.

As for A23U A27G A56G U131C, the self-cleavage is 1.03. For A23G A68C G84U A116G the value was 0.27; for A23G G31A A82G G137A, 0.21; for A23G A56G A62G A135G, 0.63.

As for A23G C85A A89C A90G U102C A116C, the self-cleavage was 0.3. Under A22U A90G U102C A116G stands 1.4. For A23G A68U U70C the value was 0.47; for A23G A59G A90G U127C U139C, 0.36; for A23G U49A A59U A64G A78U U131C U133C, 0.19. As for A22G U131C G138U, the self-cleavage was 0.97.

Consider A22U U43C A47G A68G U100C U108A, for which the self-cleavage amounted to 0.03.

For the variant A23G A55G A89C, the self-cleavage amounted to 0.85.

For the variant A23G A56G A96G A129U, the self-cleavage worked out at 0.68. Consider A23U U87C A92G A126G, for which the self-cleavage was 1.44. In the case of A23G A51G A59G A67G, the self-cleavage is 1.67. Under A22U C46U A67U C88A stands 2.13; under A23G A24C A68G, 1.34. As to A23G U39A A95G, the self-cleavage turned out to be 1.55. For A23G A62G A63U C88A the value was 0.65; for A22U U72C A82U A114G U120A U132C, 0.06.

Regarding A23G A92G A114C, the self-cleavage amounted to 0.01. For A23U A89U U100C A135G, the self-cleavage is 2.81. For A23G G58A A66U A94U the value was 0.75; for A23G A69G A98C U131C, 1.26. Take A23G U26C A27U A47C A89U A114G A125G A129G: the self-cleavage was 0.02. On to A23G U49C A94G, for which the self-cleavage was 0.79. Take A23G U108C U122G: the self-cleavage was determined as 0.02. In the case of A23C A47G A60U, the self-cleavage was 1.56.

For A23G A27U C40U A47G G79A, the self-cleavage was 0.19.

Turning to A23G A82U A140G, the self-cleavage turned out to be 0.18. As for A23G A89U U130C, the self-cleavage came to 0.91.

For A23G U37C U43G A63G A118G U120C, the self-cleavage is 0.72. Consider A23G U49A U72C A91G, for which the self-cleavage was 0.36. As for A23G U37C U49C, the self-cleavage turned out to be 0.95. Under A23G G74A U108C A114U stands 0.02. For A22U A90G U122C the value was 0.82; for A23G A89G A126U U127C, 0.51; for A23G A67C U139C, 1.37. With A23U A27G A95G U132C, the self-cleavage was 1.54. On to A24C A68G A111G U130C, for which the self-cleavage amounted to 0. For A23G A52G A92G U124A the value was 0.6; for A22U A60G U87C, 0.76; for A23G A66G A67G, 1.19. For the variant A23G A67G A96G A117G, the self-cleavage is 1.88.

In the case of A22G U127C A135C, the self-cleavage is 0.62. For A24C A33G U38A A95G, the self-cleavage worked out at 1.2. For A23G A69G U122C, the self-cleavage amounted to 0.61. Under A24C A62G U108C C112U stands 0.01; under A23G A125G U133C, 0.56.

A23G A47U A68G A78U: the self-cleavage was found to be 0.33. For the variant A23G A69G G115U U127C, the self-cleavage worked out at 0.06. For the variant A23G U38C A54G A126U, the self-cleavage worked out at 0.63. On to A23U A86G U108C, for which the self-cleavage worked out at 0.02.

Regarding A23U A51U A62G A118G, the self-cleavage came to 0.77. For the variant A23G A27G G31A A96C, the self-cleavage worked out at 1.14.

Regarding A23G U37C U38C A118G U120C, the self-cleavage stood at 0.12.
